In paper PMC5399293, “Hierarchical assembly of centriole subdistal appendages via centrosome binding proteins CCDC120 and CCDC68” (Nature Communications, 2017) one finds binding data, which are given here for 6 molecules.

No constants are given. Whether binding was seen depends on the method and setting. For some of these results: Binding seen in cells or lysates may run through a third protein. Some entries that bind do so weakly or less than the wild type. For some of these results: Sequences can lack the tags named with a protein.

Test [1] concerns the target T1, CCDC120-Flag truncate N (1–320 aa) (human) (UniProt Q96HB5).
T1 sequence: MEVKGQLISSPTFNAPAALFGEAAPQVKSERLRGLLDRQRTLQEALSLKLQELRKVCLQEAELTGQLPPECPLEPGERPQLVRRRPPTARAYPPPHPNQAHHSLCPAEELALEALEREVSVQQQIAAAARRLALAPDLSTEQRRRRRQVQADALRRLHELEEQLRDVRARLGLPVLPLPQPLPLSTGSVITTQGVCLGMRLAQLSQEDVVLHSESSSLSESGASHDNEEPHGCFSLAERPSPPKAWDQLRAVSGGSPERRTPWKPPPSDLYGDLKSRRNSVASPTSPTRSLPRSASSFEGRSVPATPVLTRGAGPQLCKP
Kind of test: co-IP; exogenous immunoprecipitation from lysates of co-transfected HEK293T cells (50 mM HEPES, 0.1% NP-40, 250 mM NaCl, 1 mM dithiothreitol, 5 mM EDTA, 10% glycerol, pH 7.5), tag antibodies on protein G-Sepharose; immunoblot. Background: Immunoblotting shows a protein as a band on a membrane.

The target of test [2] is T2, CCDC120-Flag truncate N2 (91–320 aa) (human) (UniProt Q96HB5).
T2 sequence: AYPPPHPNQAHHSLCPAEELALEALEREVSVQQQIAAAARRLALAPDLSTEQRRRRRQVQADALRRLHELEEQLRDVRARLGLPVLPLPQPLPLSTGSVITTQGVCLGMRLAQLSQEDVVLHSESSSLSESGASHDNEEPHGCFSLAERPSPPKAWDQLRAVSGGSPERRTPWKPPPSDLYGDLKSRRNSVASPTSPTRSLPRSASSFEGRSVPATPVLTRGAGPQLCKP
The test is described as above.

Test [3] concerns the target T3, Coiled-coil domain containing 120 (CCDC120), endogenous (human (endogenous in HeLa)) (UniProt Q96HB5).
T3 sequence: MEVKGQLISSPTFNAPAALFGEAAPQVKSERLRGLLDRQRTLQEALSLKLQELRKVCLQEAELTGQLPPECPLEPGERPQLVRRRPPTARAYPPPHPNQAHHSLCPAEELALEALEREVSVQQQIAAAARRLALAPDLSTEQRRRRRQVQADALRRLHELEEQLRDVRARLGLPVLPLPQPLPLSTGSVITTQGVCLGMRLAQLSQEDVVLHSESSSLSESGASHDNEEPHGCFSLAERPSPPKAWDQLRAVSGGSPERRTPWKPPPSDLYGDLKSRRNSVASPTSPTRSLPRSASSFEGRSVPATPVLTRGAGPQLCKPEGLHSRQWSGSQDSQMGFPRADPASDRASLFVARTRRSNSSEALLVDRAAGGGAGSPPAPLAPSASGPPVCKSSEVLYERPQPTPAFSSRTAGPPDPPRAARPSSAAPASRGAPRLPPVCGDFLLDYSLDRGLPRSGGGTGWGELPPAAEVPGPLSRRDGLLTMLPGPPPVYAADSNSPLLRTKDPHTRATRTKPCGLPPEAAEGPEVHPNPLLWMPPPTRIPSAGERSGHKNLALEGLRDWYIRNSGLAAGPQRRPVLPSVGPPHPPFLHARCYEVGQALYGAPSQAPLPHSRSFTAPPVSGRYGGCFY
Put plainly: co-IP; endogenous immunoprecipitation from HeLa lysates (50 mM HEPES, 150 mM NaCl, 1 mM EDTA, 0.5% Triton X-100, pH 7.4) with anti-CCDC120 or anti-CCDC68 antibody on protein A-Sepharose; immunoblot.

Test [4] has as its target T4, CCDC120 (91–320 aa) of the GST pull-down (Supplementary Fig. 4g,h) (human) (UniProt Q96HB5).
T4 sequence: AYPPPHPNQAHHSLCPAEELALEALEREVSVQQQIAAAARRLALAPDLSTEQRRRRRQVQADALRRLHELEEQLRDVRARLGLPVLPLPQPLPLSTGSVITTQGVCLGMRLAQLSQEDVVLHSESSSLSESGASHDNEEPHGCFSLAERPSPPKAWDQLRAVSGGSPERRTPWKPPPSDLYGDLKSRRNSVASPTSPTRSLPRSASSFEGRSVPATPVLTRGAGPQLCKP
Kind of test: pull-down; GST pull-down (Supplementary Fig. 4g,h); which partner carried GST and where the other came from is not told.

Test [5] deals with T5, CCDC120 (91–320 aa), yeast two-hybrid bait (human) (UniProt Q96HB5).
T5 sequence: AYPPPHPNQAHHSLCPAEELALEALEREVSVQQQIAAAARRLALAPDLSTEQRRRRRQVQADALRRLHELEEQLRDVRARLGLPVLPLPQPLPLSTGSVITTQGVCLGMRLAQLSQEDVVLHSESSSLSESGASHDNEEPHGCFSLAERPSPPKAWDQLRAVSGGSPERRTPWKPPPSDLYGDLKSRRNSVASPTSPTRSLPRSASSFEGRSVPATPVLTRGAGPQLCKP
Put plainly: two-hybrid; Matchmaker system, bait pGBKT7 and prey pGADT7 in yeast AH109, growth on quadruple (Trp-, Leu-, His-, Ade-) selective medium, 30 °C.

Test [6] has as its target T6, CCDC120-Flag, full length (human) (UniProt Q96HB5).
T6 sequence: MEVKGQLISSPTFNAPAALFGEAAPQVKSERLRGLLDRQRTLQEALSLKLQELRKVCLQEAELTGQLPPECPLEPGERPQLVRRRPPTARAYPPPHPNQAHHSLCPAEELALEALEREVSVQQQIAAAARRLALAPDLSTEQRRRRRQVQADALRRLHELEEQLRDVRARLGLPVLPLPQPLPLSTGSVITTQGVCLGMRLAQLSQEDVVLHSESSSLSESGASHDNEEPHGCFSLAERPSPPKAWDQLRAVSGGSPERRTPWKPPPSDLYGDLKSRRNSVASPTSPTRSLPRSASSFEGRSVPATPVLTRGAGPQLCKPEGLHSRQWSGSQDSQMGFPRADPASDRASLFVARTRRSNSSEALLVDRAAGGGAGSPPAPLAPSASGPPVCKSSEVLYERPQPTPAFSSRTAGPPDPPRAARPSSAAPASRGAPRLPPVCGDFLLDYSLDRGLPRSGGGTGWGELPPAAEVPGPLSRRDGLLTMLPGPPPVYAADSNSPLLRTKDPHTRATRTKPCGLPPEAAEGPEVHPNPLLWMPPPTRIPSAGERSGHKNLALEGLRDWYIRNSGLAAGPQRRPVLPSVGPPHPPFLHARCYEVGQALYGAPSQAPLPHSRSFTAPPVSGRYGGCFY
Kind of test: co-IP; exogenous immunoprecipitation from lysates of co-transfected HEK293T cells (50 mM HEPES, 0.1% NP-40, 250 mM NaCl, 1 mM dithiothreitol, 5 mM EDTA, 10% glycerol, pH 7.5), tag antibodies on protein G-Sepharose; immunoblot.

Test [7] concerns the target T7, CCDC120, yeast two-hybrid fusion (Supplementary Fig. 2f) (human) (UniProt Q96HB5).
T7 sequence: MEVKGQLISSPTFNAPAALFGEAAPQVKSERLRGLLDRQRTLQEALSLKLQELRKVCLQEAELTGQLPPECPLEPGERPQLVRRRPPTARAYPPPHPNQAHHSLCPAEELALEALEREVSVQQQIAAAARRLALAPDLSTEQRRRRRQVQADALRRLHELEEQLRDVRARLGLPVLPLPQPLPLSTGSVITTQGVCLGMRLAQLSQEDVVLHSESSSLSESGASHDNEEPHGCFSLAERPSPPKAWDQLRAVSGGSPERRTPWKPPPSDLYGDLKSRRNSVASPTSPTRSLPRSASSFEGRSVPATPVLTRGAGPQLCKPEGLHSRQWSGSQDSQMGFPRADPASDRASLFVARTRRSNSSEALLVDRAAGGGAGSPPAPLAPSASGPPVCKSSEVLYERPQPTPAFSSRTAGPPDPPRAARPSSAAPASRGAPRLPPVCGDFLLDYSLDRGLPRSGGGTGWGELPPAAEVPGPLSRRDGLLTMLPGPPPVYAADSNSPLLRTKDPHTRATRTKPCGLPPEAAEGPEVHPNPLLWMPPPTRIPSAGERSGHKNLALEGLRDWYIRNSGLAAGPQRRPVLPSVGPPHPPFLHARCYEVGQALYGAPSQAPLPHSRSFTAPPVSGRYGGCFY
Kind of test: two-hybrid; Matchmaker system, bait pGBKT7 and prey pGADT7 in yeast AH109, growth on quadruple (Trp-, Leu-, His-, Ade-) selective medium, 30 °C.

“hNinein-GFP, full length (from UniProt Q8N4C6 1-2090)”: the binding entry in test [1] and in test [2] was “binds” throughout. With “human Ninein (hNinein), endogenous (from UniProt Q8N4C6 1-2090)”, the binding entry in test [3] was “binds”. “hNinein of the GST pull-down (Supplementary Fig. 4g,h) (from UniProt Q8N4C6 1-2090)”: the binding result in test [4] was “binds”.

B1: hNinein N terminus (1–480 aa), yeast two-hybrid prey (domain or fragment, UniProt Q8N4C6 1-480)
chain: MDEVEQDQHEARLKELFDSFDTTGTGSLGQEELTDLCHMLSLEEVAPVLQQTLLQDNLLGRVHFDQFKEALILILSRTLSNEEHFQEPDCSLEAQPKYVRGGKRYGRRSLPEFQESVEEFPEVTVIEPLDEEARPSHIPAGDCSEHWKTQRSEEYEAEGQLRFWNPDDLNASQSGSSPPQDWIEEKLQEVCEDLGITRDGHLNRKKLVSICEQYGLQNVDGEMLEEVFHNLDPDGTMSVEDFFYGLFKNGKSLTPSASTPYRQLKRHLSMQSFDESGRRTTTSSAMTSTIGFRVFSCLDDGMGHASVERILDTWQEEGIENSQEILKALDFSLDGNINLTELTLALENELLVTKNSIHQAALASFKAEIRHLLERVDQVVREKEKLRSDLDKAEKLKSLMASEVDDHHAAIERRNEYNLRKLDEEYKERIAALKNELRKEREQILQQAGKQRLELEQEIEKAKTEENYIRDRLALSLKEN
Consider B1, for which the binding result in test [5] was “binds”.

B2: hNinein-GFP truncate N (1–480 aa) (domain or fragment, UniProt Q8N4C6 1-480)
chain: MDEVEQDQHEARLKELFDSFDTTGTGSLGQEELTDLCHMLSLEEVAPVLQQTLLQDNLLGRVHFDQFKEALILILSRTLSNEEHFQEPDCSLEAQPKYVRGGKRYGRRSLPEFQESVEEFPEVTVIEPLDEEARPSHIPAGDCSEHWKTQRSEEYEAEGQLRFWNPDDLNASQSGSSPPQDWIEEKLQEVCEDLGITRDGHLNRKKLVSICEQYGLQNVDGEMLEEVFHNLDPDGTMSVEDFFYGLFKNGKSLTPSASTPYRQLKRHLSMQSFDESGRRTTTSSAMTSTIGFRVFSCLDDGMGHASVERILDTWQEEGIENSQEILKALDFSLDGNINLTELTLALENELLVTKNSIHQAALASFKAEIRHLLERVDQVVREKEKLRSDLDKAEKLKSLMASEVDDHHAAIERRNEYNLRKLDEEYKERIAALKNELRKEREQILQQAGKQRLELEQEIEKAKTEENYIRDRLALSLKEN
Regarding B2, the binding result in test [6] was “binds”.

B3: ODF2, yeast two-hybrid fusion (Supplementary Fig. 2f) (protein, UniProt Q5BJF6 1-829)
chain: MSASSSGGSPRFPSCGKNGVTSLTQKKVLRAPCGAPSVTVTKSHKRGMKGDTVNVRRSVRVKTKVPWMPPGKSSARPVGCKWENPPHCLEITPPSSEKLVSVMRLSDLSTEDDDSGHCKMNRYDKKIDSLMNAVGCLKSEVKMQKGERQMAKRFLEERKEELEEVAHELAETEHENTVLRHNIERMKEEKDFTILQKKHLQQEKECLMSKLVEAEMDGAAAAKQVMALKDTIGKLKTEKQMTCTDINTLTRQKELLLQKLSTFEETNRTLRDLLREQHCKEDSERLMEQQGALLKRLAEADSEKARLLLLLQDKDKEVEELLQEIQCEKAQAKTASELSKSMESMRGHLQAQLRSKEAENSRLCMQIKNLERSGNQHKAEVEAIMEQLKELKQKGDRDKESLKKAIRAQKERAEKSEEYAEQLHVQLADKDLYVAEALSTLESWRSRYNQVVKEKGDLELEIIVLNDRVTDLVNQQQTLEEKMREDRDSLVERLHRQTAEYSAFKLENERLKASFAPMEDKLNQAHLEVQQLKASVKNYEGMIDNYKSQVMKTRLEADEVAAQLERCDKENKILKDEMNKEIEAARRQFQSQLADLQQLPDILKITEAKLAECQDQLQGYERKNIDLTAIISDLRSRIEHQGDKLEMAREKHQASQKENKQLSLKVDELERKLEATSAQNIEFLQVIAKREEAIHQSQLRLEEKTRECGTLARQLESAIEDARRQVEQTKEHALSKERAAQNKILDLETQLSRTKTELSQLRRSRDDADRRYQSRLQDLKDRLEQSESTNRSMQNYVQFLKSSYANVFGDGPYSTFLTSSPIRSRSPPA
Take B3: the binding entry in test [7] is recorded as “no binding”.
